Data published in PubChem BioAssay AID485344 (National Center for Advancing Translational Sciences (NCATS), 2010).
In all, about 340,000 compounds went through this assay and about 6,900 (2%) were called active. No stated cut-off is given here; in the data, active means inhibition above about 30%; inactive means below that, where a call was filed. The entries are a selection whose mix differs from that of the whole data set. Entries without a call were filed so in the source.

Target: D(2) dopamine receptor (Homo sapiens) (UniProt P14416)
Chain of UniProt P14416 (P14416 whole entry, looked up): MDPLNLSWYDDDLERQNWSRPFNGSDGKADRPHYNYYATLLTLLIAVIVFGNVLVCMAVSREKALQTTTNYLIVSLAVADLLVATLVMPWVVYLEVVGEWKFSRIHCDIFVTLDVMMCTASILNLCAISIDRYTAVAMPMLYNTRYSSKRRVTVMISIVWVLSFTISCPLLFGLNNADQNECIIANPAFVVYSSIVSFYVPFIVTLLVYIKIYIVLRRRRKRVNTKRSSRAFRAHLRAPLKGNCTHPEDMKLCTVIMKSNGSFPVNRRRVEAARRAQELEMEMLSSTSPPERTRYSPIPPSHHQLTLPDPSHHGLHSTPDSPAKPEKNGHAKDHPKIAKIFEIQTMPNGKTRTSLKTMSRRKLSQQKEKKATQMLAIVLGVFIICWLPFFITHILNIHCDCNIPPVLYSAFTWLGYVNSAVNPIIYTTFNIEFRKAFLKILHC
Assay: HTS Assay for Allosteric Antagonists of the Human D2 Dopamine Receptor: Primary Screen for Antagonists; further: 0% is about no effect
Settings: HEK293 TREx D2 cells, calcium flux, dopamine EC80; at 10 µM; stronger effect = higher value
Method in brief: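 Tetracycline-induced HEK293 T-REx cells expressing D2 force-coupled to calcium signalling were dye-loaded, exposed to compound for 180 s, then challenged with an EC80 of dopamine; calcium flux was followed kinetically for a further 180 s.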

Row | Structure (SMILES) | inhibition
1 | CCOC(=O)C1CCN(c2nc3c(S(=O)(=O)c4ccc(C)c(C)c4)nnn3c3ccc(Cl)cc23)CC1 | -2.18%
2 | CC(C)(C)C1CCc2oc3ccc(NS(=O)(=O)c4ccc(C(=O)O)cc4)cc3c2C1 (stereo not drawn) | 21.6%
3 | COc1ccc(Cn2c(SCC(=O)N(C)Cc3ccccc3)nc3ccccc32)cc1 | 0.478%
4 | Cc1ccc(NC(=O)Cn2c(=O)nc(-c3ccccc3)c3ccccc32)cc1F | 0.428%
5 | CN1CCc2c(sc3c2C(=O)NC(c2ccc(C(C)(C)C)cc2)N3)C1 (stereo not drawn) | 18.8%
6 | O=C(Nc1cnc(N2CCN(c3ccccc3)CC2)c(C(=O)O)c1)c1cccs1 | 13.9%
7 | Cc1cccc(-c2noc(-c3ccc(N4CCOCC4)c([N+](=O)[O-])c3)n2)c1 | -4.43%
8 | CC1CCN(S(=O)(=O)c2ccc3c(ccc(=O)n3CC(=O)Nc3cccc(F)c3)c2)CC1 | -5.03%
9 | CCN(Cc1ccccc1)S(=O)(=O)c1ccc(C(=O)Nc2nnc(-c3ccccc3OC)o2)cc1 | active: 41.6%
10 | Cc1ccc(NC(=O)c2cc(S(=O)(=O)NCCc3ccc(Cl)cc3)ccc2F)cc1 | 0.527%
11 | Cc1ccc2c(=O)cc(C(=O)Nc3ccc(S(=O)(=O)Nc4ncccn4)cc3)oc2c1C | -10%
12 | O=C(CSc1nc2c([nH]c3ccccc32)c(=O)n1-c1ccc(Cl)cc1)c1ccccc1 | -11.6%
13 | Cc1cc(C)cc(NC(=O)Cn2cc(C(=O)C3CCCCC3)c3ccccc32)c1 | 11.6%
14 | Cc1ccc2nc(COc3ccccc3NC(=O)c3ccc(F)cc3)cc(=O)n2c1 | 2.01%
15 | COc1ccc(NCc2cccn2-c2nnc(N3CCCCC3)s2)cc1OC | 3.56%
16 | Cc1cc(C)c(NC(=O)C2CCN(c3nn4c(=O)cc(C)nc4s3)CC2)c(C)c1 | 13.7%
17 | O=C(c1ccco1)N1CCN(C(=O)C2CCN(S(=O)(=O)c3cnc[nH]3)CC2)CC1 | active: 51.6%
18 | CCOc1ccc(NC(=O)c2c(NC(=O)Cc3ccccc3)sc3c2CCCCC3)cc1 | 1.1%
19 | COc1ccccc1CNC(=O)c1cn(C)c2ccc(S(=O)(=O)N(C)C3CCCCC3)cc2c1=O | 1.62%
20 | CCOc1ccc(NS(=O)(=O)c2ccc3c(c2)CCCN3C(=O)C2CCC2)cc1 | 17%
21 | Cc1ccc(NC(=O)CSc2cn(CC(=O)N3CCCC3)c3ccccc23)cc1Cl | -7.96%
22 | CCOC(=O)CSc1nc2c(sc3ccccc32)c(=O)n1CCO | 5.84%
23 | Cc1cc(C)n(-c2ccc([N+](=O)[O-])cc2)n1 | active: 34.2%
24 | Cc1csc2nc(COc3cccc(NC(=O)c4ccccc4F)c3)cc(=O)n12 | 10.8%

Row | Structure (SMILES) | inhibition
25 | Cc1nn(CC(=O)N2CCN(c3ccc(Cl)cc3)CC2)c(=O)c2cccn12 | 20.3%
26 | COc1ccc(OCC(O)Cn2c(NCCO)nc3c2c(=O)n(C)c(=O)n3C)cc1 (stereo not drawn) | -12.3%
27 | COc1ccc(NC(=O)CSc2nc3c(oc4ccccc43)c(=O)n2Cc2ccco2)cc1Cl | 6.26%
28 | COc1ccc(/C=C/C(=O)Nc2nc(-c3cccs3)ns2)cc1 | -5.67%
29 | CC1CCN(S(=O)(=O)c2nnc(NC(=O)c3cccc(Cl)c3)s2)CC1 | 13.8%
30 | Cc1ccc(CCNc2ncnc3onc(-c4ccc(Cl)cc4)c23)cc1 | 4.12%
31 | COc1ccc(-c2nc(S(=O)(=O)c3ccc(Cl)cc3)c(NCc3ccccc3)o2)cc1 | 20%
32 | COc1cc(-c2nc(Cn3nnc(C(=O)Nc4cccc(Cl)c4)c3C)c(C)o2)cc(OC)c1OC | 0.477%
33 | Cc1ccc(-c2cn3c(n2)sc2cc(C(=O)NCCC4=CCCCC4)ccc23)cc1 | -26.4%
34 | COc1ccc(CNC(=O)C2CCC(CNS(=O)(=O)c3ccc4c(c3)CCCC(=O)N4)CC2)cc1 (stereo not drawn) | -0.953%
35 | Cc1noc(C)c1S(=O)(=O)N(CC(=O)NCCc1ccccc1)c1ccc(C(C)C)cc1 | -7.24%
36 | CCOC(=O)c1c(NC(=O)c2ccc(S(=O)(=O)N(C)C3CCCCC3)cc2)sc2c1CCN(C(C)C)C2 | 3.41%
37 | CCOCCCN1C(=O)c2ccccc2CC1(C)C(=O)NC1CCCCC1 (stereo not drawn) | 5.17%
38 | COC(=O)c1ccccc1NC(=O)c1sc2nc(C)cc(C)c2c1NC(=O)c1ccccc1OC | -12.8%
39 | COc1ccc(NC(=O)C2=C(C)Nc3ncnn3C2c2cccn2C)cc1 (stereo not drawn) | 0.214%
40 | CC(=O)Nc1ccc(S(=O)(=O)NC2=NCN(CCO)CN2)cc1 | 2.92%
41 | O=C(C1CCN(S(=O)(=O)Cc2ccccc2)CC1)N1CCN(c2cccc(C(F)(F)F)c2)CC1 | 2.34%
42 | COc1ccccc1CNC(=O)CN1C(=O)COc2ccc(S(=O)(=O)NC3CCCC3)cc21 | 5.12%
43 | Cc1cccc(-n2c(CNC(=O)c3cccc(F)c3)nnc2SCC(=O)Nc2ccccc2F)c1 | 25%
44 | CC1CCN(CC2CCN(C(=O)Nc3ccc(Br)cc3F)CC2)CC1 | -3.53%
45 | CC(=O)Nc1ccc(C(=O)COC(=O)c2cccs2)c(F)c1 | active: 34.7%
46 | CCc1cccc(-n2c(=O)c3cccnc3n2CC(=O)Nc2c(C)cc(C)cc2C)c1 | -6.39%
47 | COc1cc(S(=O)(=O)NCCc2c(C)[nH]c3ccccc23)c(C)cc1C | 15%
48 | O=C(N/N=C/c1cccc([N+](=O)[O-])c1)c1cc2ccccc2o1 | active: 32.9%

Row | Structure (SMILES) | inhibition
49 | COc1ccc(N(Cc2cc3cccc(C)c3[nH]c2=O)C(=O)c2cccc(Cl)c2)cc1 | -2.07%
50 | CC(=O)N1CCc2cc(S(=O)(=O)C(C)CC(=O)Nc3ccc(Br)c(C)c3)ccc21 (stereo not drawn) | -6.15%
51 | CN(C)S(=O)(=O)c1ccc(C(=O)NCCSc2c(-c3ccccc3)[nH]c3ccccc23)cc1 | 6.55%
52 | COc1ccc2nc(N(Cc3cccnc3)C(=O)Cc3ccccc3)sc2c1 | 24.1%
53 | CCCn1c(=O)n(-c2ccccc2Cl)c(=O)c2sc3ccccc3c21 | 7.93%
54 | Cc1cc(C)c(NC(=O)Cn2nc(-c3ccncc3)ccc2=O)c(C)c1 | 4.93%
55 | O=C(CN1C(=O)C(c2ccc(F)cc2)=NC12CCCCCC2)Nc1ccccc1Cl | 0.187%
56 | CC1=Nc2cc(C(=O)NCc3ccccc3Cl)ccc2Sc2c(C)ccc(C)c21 | 6.27%
57 | COc1ccc(-c2ccc3c(N)c(C(=O)Nc4ccc(C(F)(F)F)cc4)sc3n2)cc1OC | -10.8%
58 | Cc1ccc(C)c(N2CCN(S(=O)(=O)c3cc(-c4cc(C)no4)ccc3C)CC2)c1 | 5.82%
59 | Cc1nc2cccnc2n1-c1cccc(C(=O)N2CCN(c3cccc(Cl)c3)CC2)c1 | 27.7%
60 | COc1ccc(-c2nnc(SCC(=O)NCCc3ccc(OC)c(OC)c3)nc2-c2ccc(OC)cc2)cc1 | -14.4%
61 | Cc1ccc(-n2nc(CO)c(C(=O)NCCCCc3ccccc3)n2)cc1C | -12.8%
62 | Cc1ccc(-c2nnc(Nc3cccc(Cl)c3)c3ccccc23)cc1S(=O)(=O)N1CCCCC1 | 9.76%
63 | COc1ccc(NS(=O)(=O)c2cccc(C(=O)NCC(c3ccco3)N(C)C)c2)cc1 (stereo not drawn) | active: 36.5%
64 | CC(=O)c1ccc(N2CCN(C(=O)C3CCCN(S(=O)(=O)c4ccc(Br)s4)C3)CC2)cc1 (stereo not drawn) | -8.79%
65 | CN(C)C(=O)/C(=C\c1ccncc1)NC(=O)c1ccccc1 | active: 39.2%
66 | Cc1ccc(-n2nc3ccc(NC(=O)COc4ccccc4C)cc3n2)cc1 | -1.82%
67 | CCC1CN(S(=O)(=O)c2cc(-c3cc(C)no3)ccc2C)c2cc(C)ccc2O1 (stereo not drawn) | 2.3%
68 | O=C(COC(=O)c1cc[n+]([O-])cc1)Nc1ccc(SC(F)F)cc1 | active: 30.6%
69 | Cc1nc2c(-c3ccc(F)cc3)c(C)nn2c(C)c1CCC(=O)N1CCN(c2ccccc2)CC1 | 23.4%
70 | O=C(Nc1cc(C(F)(F)F)ccc1-n1cncn1)c1ccc(F)cc1Cl | active: 34.8%
71 | Cc1cccc2c3c([nH]c12)CCN(C)C3 | active: 66.1%
72 | CCCCn1c(SCC(=O)c2ccccc2)nc2c(sc3ccccc32)c1=O | 13.5%

Row | Structure (SMILES) | inhibition
73 | O=C(NCc1ccccc1)C(=O)Nc1nc(C23CC4CC(CC(C4)C2)C3)cs1 | active: 32.2%
74 | CCN(C(=O)Cn1nnc2sc3c(c2c1=O)CCC(C(C)(C)C)C3)c1cccc(C)c1 (stereo not drawn) | -11.8%
75 | COC(=O)c1cc2oc3ccccc3c2n1Cc1nc(-c2ccc(Cl)cc2)oc1C | -6.6%
76 | CCc1ccc(CNC(=O)c2nn(-c3ccc(C)cc3)c(=O)c3c2c2ccccc2n3C)cc1 | -4.79%
77 | COc1ccc(CNc2nc(NCc3ccc(OC)cc3)c3[nH]cnc3n2)cc1 | active: 41.6%
78 | Cc1ccc(OCCCCN2CCC(C)CC2)cc1 | active: 48.9%
79 | O=C(Nc1ccc(S(=O)(=O)N2CCCC2)cc1)c1ccc(CN2CCc3ccccc3C2)cc1 | active: 64%
80 | Cc1ccc(S(=O)(=O)N(CC(=O)Nc2ccc3c(c2)OCO3)c2cc(Cl)cc(Cl)c2)cc1 | -12.7%
81 | Cc1cc(OCC(=O)Nc2ncn[nH]2)ccc1Cl | 16.4%
82 | CCN(CC)S(=O)(=O)c1ccc(OC)c(-n2cnnn2)c1 | -9.96%
83 | CCCCC(=O)NC1CC(=O)N(c2ccc3c(c2)OCCO3)C1 (stereo not drawn) | 2.96%
84 | COc1cccc(-n2c(=O)c3sc4ccccc4c3n(CC(=O)NC3CCCCC3)c2=O)c1 | -9.12%
85 | Cc1c(NC(=O)c2ccc(-c3cccc([N+](=O)[O-])c3)o2)cccc1-c1nc2cc(Cl)ccc2o1 | -4.13%
86 | Cn1c(=O)oc2cc(S(=O)(=O)NCCC(=O)Nc3ccc(F)cc3F)ccc21 | 13.5%
87 | CCOC(=O)c1cc2c(=O)n3ccccc3nc2n(CCOC)c1=NC(=O)c1c(-c2ccccc2Cl)noc1C | -15.6%
88 | O=C(CNC(=O)c1ccc(F)cc1)OCc1cc(=O)n2nc(C3CC3)sc2n1 | -2.25%
89 | CCc1nc2nc(C)c(NS(=O)(=O)c3ccc(C(C)(C)C)cc3)c(=O)n2[nH]1 | 0.405%
90 | O=C(CCn1cnc2ccccc2c1=O)NCc1ccccc1Cl | -20.7%
91 | CCc1ccc(S(=O)(=O)Nc2cc3c(C(=O)OCc4ccccc4)c(C)oc3c3ccccc23)cc1 | -5.99%
92 | COc1ccc(-c2nc(C)c(CCNS(=O)(=O)c3cc(Cl)ccc3Cl)s2)cc1 | 2.51%
93 | CCOC(=O)c1sc2ncn(CC(=O)Nc3ccc(OCC)cc3)c(=O)c2c1C | -0.934%
